Reference: the supplement of paper PMC4996465

Assays:
KB3-1 = assay: viability (% of DMSO control); higher = more viable cells
Description: (§1)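 Eleven-dose screen of the NCATS MIPE 3 library on cells without co-treatment; CellTiter-Glo after 48 h, as % of DMSO wells.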

Nalm-6 [1] = assay: as above
Description: as §1

Nalm-6 [2] = assay: log AC50 of viability decrease (48 h) (log10 M); higher = less potent
Description: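 Eleven-dose screen of the NCATS MIPE 3 library on cells without co-treatment; CellTiter-Glo after 48 h. AC50 from the curve fit; only inhibitory curves of the better fit classes are listed.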

Structure (SMILES)	viability (KB3-1; 0.00078 µM)	viability (KB3-1; 0.00234 µM)	viability (KB3-1; 0.00702 µM)	viability (KB3-1; 0.0211 µM)	viability (KB3-1; 0.0632 µM)	viability (KB3-1; 0.19 µM)	viability (KB3-1; 0.569 µM)	viability (KB3-1; 1.71 µM)	viability (KB3-1; 5.12 µM)	viability (KB3-1; 15.4 µM)	viability (KB3-1; 46.1 µM)	viability (Nalm-6 [1]; run: 1, 0.00078 µM)	viability (Nalm-6 [1]; run: 1, 0.00234 µM)	viability (Nalm-6 [1]; run: 1, 0.00702 µM)	viability (Nalm-6 [1]; run: 1, 0.0211 µM)	viability (Nalm-6 [1]; run: 1, 0.0632 µM)	viability (Nalm-6 [1]; run: 1, 0.19 µM)	viability (Nalm-6 [1]; run: 1, 0.569 µM)	viability (Nalm-6 [1]; run: 1, 1.71 µM)	viability (Nalm-6 [1]; run: 1, 5.12 µM)	viability (Nalm-6 [1]; run: 1, 15.4 µM)	viability (Nalm-6 [1]; run: 1, 46.1 µM)	viability (Nalm-6 [1]; run: 2, 0.00078 µM)	viability (Nalm-6 [1]; run: 2, 0.00234 µM)	viability (Nalm-6 [1]; run: 2, 0.00702 µM)	viability (Nalm-6 [1]; run: 2, 0.0211 µM)	viability (Nalm-6 [1]; run: 2, 0.0632 µM)	viability (Nalm-6 [1]; run: 2, 0.19 µM)	viability (Nalm-6 [1]; run: 2, 0.569 µM)	viability (Nalm-6 [1]; run: 2, 1.71 µM)	viability (Nalm-6 [1]; run: 2, 5.12 µM)	viability (Nalm-6 [1]; run: 2, 15.4 µM)	viability (Nalm-6 [1]; run: 2, 46.1 µM)	log AC50 of viability decrease (Nalm-6 [2]; run: 1)	log AC50 of viability decrease (Nalm-6 [2]; run: 2)
OC(CN1CCC(Cc2ccc(F)cc2)CC1)c1ccc(Cl)cc1 (configuration not stated) [Eliprodil]	102%	104%	102%	103%	102%	98.1%	99%	100%	89.9%	100%	77.4%	117%	122%	111%	115%	111%	116%	111%	121%	109%	71.8%	35.8%	104%	106%	101%	106%	103%	106%	104%	109%	95.9%	93.9%	4.61%	-4.83	–
C[N]1C=C(C2=CC=CC=C12)\C3=C(\C(=O)NC3=O)C4=C[N](C5CCN(CC5)CC6=NC=CC=C6)C7=C4C=CC=C7 [Enzastaurin]	99.8%	97.3%	94.3%	97.6%	99.4%	102%	99.9%	107%	109%	103%	34.8%	90.4%	107%	104%	107%	111%	112%	108%	114%	73.5%	42.8%	6.59%	101%	111%	99.8%	102%	104%	105%	105%	105%	34.1%	13%	4.81%	-4.93	-5.38
CCOC(=O)[C@@H](N)CCC(=O)N[C@@H](CSCc1ccccc1)C(=O)N[C@@H](C(=O)OCC)c1ccccc1 [Ezatiostat]	101%	103%	106%	106%	110%	109%	115%	107%	110%	107%	101%	121%	118%	127%	116%	126%	121%	121%	122%	115%	84%	8.9%	103%	105%	112%	105%	108%	112%	112%	109%	101%	93.1%	4.91%	-4.73	-4.63
COC1=CC=CC=C1C2=CC=CC(=C2)C/3=C(O)/C4=CC(=C(Cl)C=C4NC3=O)C#N [FASN MRK]	106%	105%	105%	97.5%	102%	102%	101%	100%	98.9%	98.1%	87.6%	121%	117%	128%	125%	115%	113%	112%	111%	105%	99.3%	75.9%	111%	106%	108%	106%	110%	105%	103%	104%	104%	98.6%	93.4%	-4.73	–
CN1CC(=O)N=C1NC(=O)Nc1cccc(Cl)c1 [Fenobam]	100%	102%	103%	103%	99.4%	99.2%	98.8%	96.7%	95.5%	97%	87.5%	111%	108%	107%	105%	99.8%	95.6%	89.5%	77.2%	65.7%	76.7%	67.8%	105%	104%	102%	103%	101%	104%	107%	110%	106%	109%	99.9%	-6.38	–
O=C(O)Cc1cccc(OCCCN(Cc2cccc(C(F)(F)F)c2Cl)CC(c2ccccc2)c2ccccc2)c1 [GSK-3965]	97.1%	102%	96.9%	97.6%	100%	104%	102%	98.5%	102%	96.2%	44.6%	93.1%	98.1%	89.6%	66.2%	25.2%	-0.454%	-1.65%	-1.97%	-2.07%	-2.06%	-2.21%	78.7%	94.5%	89.9%	94.5%	104%	93.4%	95.4%	102%	103%	96.2%	1.31%	-7.48	–
CC(C)(C)OC(=O)CN(Cc1ccc(Cl)cc1)Cc1ccc([N+](=O)[O-])s1 [GSK-4112]	102%	104%	109%	108%	104%	111%	109%	101%	101%	101%	69.7%	117%	121%	124%	117%	121%	118%	117%	117%	103%	77.4%	5.09%	106%	105%	105%	105%	104%	106%	106%	20.7%	94.6%	3.94%	2%	-4.73	–
CC(C)c1onc(-c2c(Cl)cccc2Cl)c1COc1ccc(/C=C/c2cccc(C(=O)O)c2)c(Cl)c1 [GW-4064X]	99.7%	108%	106%	111%	108%	107%	110%	102%	103%	97.9%	73.3%	133%	127%	131%	129%	134%	128%	136%	128%	127%	114%	55.9%	104%	111%	102%	113%	107%	107%	103%	107%	14.8%	1.17%	10.7%	-4.68	-5.48
COc1cc2ncnc(Nc3ccc(F)c(Cl)c3)c2cc1OCCCN1CCOCC1 [Gefitinib]	104%	104%	103%	102%	101%	105%	100%	99.8%	96.4%	98.4%	29.9%	131%	132%	123%	129%	120%	111%	112%	109%	103%	104%	5.97%	104%	101%	102%	103%	107%	102%	104%	95.4%	98.2%	98.2%	6.4%	-4.58	–
CNC1CCC(N(Cc2cccc(-c3ccncc3)c2)C(=O)c2sc3c(F)ccc(F)c3c2Cl)CC1 (configuration not stated) [Hh-Ag1.5]	98.3%	94.5%	97%	90.5%	60%	49.7%	92.2%	95.2%	87.3%	87.1%	0.177%	89.5%	99.8%	101%	107%	105%	101%	95.8%	92.5%	68.5%	61.8%	0.174%	107%	100%	100%	109%	103%	104%	95%	89.5%	77.2%	74.6%	0.199%	-4.78	-4.68
C[C@]\12CCC(=O)\C=C1CC[C@H]3[C@@H]4CC[C@](O)(C(=O)CO)[C@@]4(C)C[C@H](O)[C@H]23 [Hydrocortisone]	97.1%	104%	100%	103%	96.4%	103%	96.4%	98.9%	96%	96.5%	86.6%	108%	119%	105%	100%	94.7%	84.8%	70.4%	72.9%	63.6%	63%	50.5%	101%	106%	105%	96.8%	91.3%	84.4%	76.6%	67.7%	65%	70%	52.7%	-6.68	-6.53
O=C(c1ccc(Nc2nccc(-c3cc4ccccc4s3)n2)cc1)N1CCC(N2CCCC2)CC1 [IKK16]	97.5%	95%	82.4%	43.7%	32.9%	26.7%	20.5%	84.5%	20.3%	46%	-1.02%	41.9%	88.1%	87.2%	91.1%	88.1%	81.9%	86.7%	74.9%	56.8%	43%	-0.433%	94.5%	101%	94.4%	103%	97.1%	96.7%	97.1%	89.6%	68.2%	44.8%	0.125%	–	-4.78
Cc1csc(NC(=O)c2sc3nc4c(c(C(F)(F)F)c3c2N)CCC4)n1 [Irestatin 9389]	106%	111%	108%	109%	105%	106%	105%	109%	101%	105%	67.2%	112%	112%	114%	106%	113%	110%	110%	114%	105%	96.6%	46%	106%	110%	102%	107%	104%	101%	98.6%	101%	33.2%	83.1%	20.3%	-4.68	–
CC(C)(C)C1=CC(=C(NC(=O)C/2=C/NC3=C(C=CC=C3)C2=O)C=C1O)C(C)(C)C [Ivacaftor]	102%	101%	102%	102%	102%	101%	103%	102%	97.1%	94%	4.06%	96.3%	100%	109%	101%	106%	100%	102%	96.3%	104%	84.2%	4.54%	98.8%	95.3%	98.6%	98.5%	99.1%	94.2%	94.6%	91%	96.2%	51.6%	4.09%	-4.63	-4.78

Viability of KB3-1 and Nalm-6 cells after 48 h of drug alone (CellTiter-Glo), 11 doses over about 4.5 log units. % of DMSO wells, lower = more cell loss; AC50 from the fitted curve, lower = more potent. No active / inactive call. Nalm-6 was screened in two runs. AC50 is listed only for well-fitted inhibitory curves. KB3-1 is a HeLa-derived carcinoma line, Nalm-6 a B-cell precursor leukaemia line.
